The list shows a part of the results. The main result of the screen is listed elsewhere. These columns were measured beside it and carry no call.
Target: GTPase KRas (Homo sapiens) (UniProt P01116)
Experiment: Cysteine mutants labelled by reactive fragments (mass read-out) (AID 2202238)
Parameters: protein at 5 µM with 500 µM competing thiol for 1.5 h
Conditions: KRAS G12D cysteine mutants, disulfide tethering, MALDI-TOF labeling, stronger effect = higher value, fragment at 500 µM
[1] = measured here: G75C mutant labeling
[2] = measured here: H94C mutant labeling
[3] = measured here: I36C mutant labeling
[4] = measured here: L120C mutant labeling
[5] = measured here: M67C mutant labeling
[6] = measured here: M72C mutant labeling
[7] = measured here: N86C mutant labeling
[8] = measured here: P121C mutant labeling
[9] = measured here: S122C mutant labeling
[10] = measured here: S136C mutant labeling
[11] = measured here: G60C mutant labeling
[12] = measured here: N26C mutant labeling

Chain of UniProt P01116 (P01116 whole entry, looked up, the tested form may be a part): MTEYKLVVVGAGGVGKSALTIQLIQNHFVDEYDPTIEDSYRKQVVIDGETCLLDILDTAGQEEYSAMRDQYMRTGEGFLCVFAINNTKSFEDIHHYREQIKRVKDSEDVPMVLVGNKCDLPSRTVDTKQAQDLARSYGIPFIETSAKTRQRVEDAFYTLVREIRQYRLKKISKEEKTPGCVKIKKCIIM

O=C(CCS)NCc1c2c(n[nH]c1=O)CCCC2
percent labeling [1]: 11.1% | percent labeling [2]: 29.2% | percent labeling [3]: 30.3% | percent labeling [4]: 40% | percent labeling [5]: 35.7% | percent labeling [6]: 20.6% | percent labeling [7]: 11.5% | percent labeling [8]: 30.9% | percent labeling [9]: 35.2% | percent labeling [10]: 54.1%

O=C(Cn1cnc2scc(-c3cccs3)c2c1=O)NCCS
percent labeling [11]: 19.8% | percent labeling [1]: 7.2% | percent labeling [2]: 10.1% | percent labeling [3]: 19.1% | percent labeling [4]: 15.4% | percent labeling [5]: 9.4% | percent labeling [6]: 19.5% | percent labeling [12]: 16.5% | percent labeling [7]: 7.3% | percent labeling [8]: 6.9% | percent labeling [9]: 3.5% | percent labeling [10]: 14.9%

CC(C)(C)OC(=O)N1CCC(C2CCN(C(=O)CCS)CC2)CC1
percent labeling [1]: 22.5% | percent labeling [2]: 27.3% | percent labeling [3]: 29.8% | percent labeling [4]: 20.6% | percent labeling [5]: 31.5% | percent labeling [6]: 33.6% | percent labeling [7]: 21.9% | percent labeling [8]: 27.3% | percent labeling [9]: 20.6% | percent labeling [10]: 52.2%

O=C(CCS)NCCN1CCN(c2ncccn2)CC1
percent labeling [1]: 12.2% | percent labeling [2]: 32.2% | percent labeling [3]: 45% | percent labeling [4]: 40.2% | percent labeling [5]: 42.7% | percent labeling [6]: 16.8% | percent labeling [7]: 24.1% | percent labeling [8]: 31.7% | percent labeling [9]: 35% | percent labeling [10]: 52.7%

O=C(NCCS)c1ccc2c(c1)nnn2CCc1ccccc1
percent labeling [11]: 7.2% | percent labeling [1]: 4.5% | percent labeling [2]: 6.8% | percent labeling [3]: 11.8% | percent labeling [4]: 9.9% | percent labeling [5]: 10.3% | percent labeling [6]: 29.6% | percent labeling [12]: 21.7% | percent labeling [7]: 4.9% | percent labeling [8]: 7.2% | percent labeling [9]: 4.5% | percent labeling [10]: 11.7%

O=C(CCS)NCc1cccc(N2CCCC2=O)c1
percent labeling [1]: 10.9% | percent labeling [2]: 36.3% | percent labeling [3]: 39% | percent labeling [4]: 30.4% | percent labeling [5]: 37.3% | percent labeling [6]: 22.3% | percent labeling [7]: 18.5% | percent labeling [8]: 30.9% | percent labeling [9]: 34.2% | percent labeling [10]: 50.6%

O=C(NCCS)c1ncoc1CCC(F)(F)F
percent labeling [11]: 28% | percent labeling [1]: 19.8% | percent labeling [2]: 35.8% | percent labeling [3]: 15.8% | percent labeling [4]: 37.8% | percent labeling [5]: 23.6% | percent labeling [6]: 38.6% | percent labeling [12]: 31% | percent labeling [7]: 21% | percent labeling [8]: 26.4% | percent labeling [9]: 28.4% | percent labeling [10]: 40.2%

O=C(NCCS)C1CCCN(C(=O)N2CCc3sccc3C2)C1 (configuration not stated)
percent labeling [11]: 29.1% | percent labeling [1]: 7.7% | percent labeling [2]: 18.3% | percent labeling [3]: 14.5% | percent labeling [4]: 16.5% | percent labeling [5]: 28.7% | percent labeling [6]: 17.9% | percent labeling [12]: 34.1% | percent labeling [7]: 7.6% | percent labeling [8]: 15.7% | percent labeling [9]: 16.8% | percent labeling [10]: 36%

CC1(C)Cc2c(cnn2-c2ccccc2)CN(C(=O)CCS)C1
percent labeling [1]: 26.3% | percent labeling [2]: 37.7% | percent labeling [3]: 35.4% | percent labeling [4]: 27.2% | percent labeling [5]: 55.8% | percent labeling [6]: 51.6% | percent labeling [7]: 27.3% | percent labeling [8]: 31.2% | percent labeling [9]: 31.4% | percent labeling [10]: 53.6%

O=C(NCCS)c1ccn(CC(F)(F)F)c(=O)c1
percent labeling [11]: 23.5% | percent labeling [1]: 13.9% | percent labeling [2]: 31.8% | percent labeling [3]: 24.8% | percent labeling [4]: 35% | percent labeling [5]: 31.9% | percent labeling [6]: 24.8% | percent labeling [12]: 37% | percent labeling [7]: 26.6% | percent labeling [8]: 31.3% | percent labeling [9]: 32.9% | percent labeling [10]: 45%

N#Cc1cnn(-c2cccc(C(=O)NCCS)c2)c1N
percent labeling [11]: 33.1% | percent labeling [1]: 16.8% | percent labeling [2]: 29.5% | percent labeling [3]: 25.1% | percent labeling [4]: 32.3% | percent labeling [5]: 30.7% | percent labeling [6]: 38.5% | percent labeling [12]: 48.8% | percent labeling [7]: 27.5% | percent labeling [8]: 27.2% | percent labeling [9]: 26.4% | percent labeling [10]: 45.4%

O=C(CCNC(=O)c1cccc(Cl)c1)NCCS
percent labeling [11]: 34.1% | percent labeling [1]: 11.3% | percent labeling [2]: 31.6% | percent labeling [3]: 26.9% | percent labeling [4]: 29.9% | percent labeling [5]: 34.9% | percent labeling [6]: 28.8% | percent labeling [12]: 35.2% | percent labeling [7]: 25.3% | percent labeling [8]: 27.5% | percent labeling [9]: 25% | percent labeling [10]: 38.8%

O=C(NCCS)c1nc2ccccc2nc1C1CC1
percent labeling [11]: 35.1% | percent labeling [1]: 11.2% | percent labeling [2]: 15.9% | percent labeling [3]: 11.9% | percent labeling [4]: 21.8% | percent labeling [5]: 12.9% | percent labeling [6]: 24.6% | percent labeling [12]: 28.6% | percent labeling [7]: 9.3% | percent labeling [8]: 33.3% | percent labeling [9]: 10.2% | percent labeling [10]: 19.6%

O=C(NCCS)c1c[nH]c(=O)c(C(F)(F)F)c1
percent labeling [11]: 38.8% | percent labeling [1]: 29% | percent labeling [2]: 34% | percent labeling [3]: 30.6% | percent labeling [4]: 34.9% | percent labeling [5]: 32% | percent labeling [6]: 49% | percent labeling [12]: 48.1% | percent labeling [7]: 28.1% | percent labeling [8]: 34% | percent labeling [9]: 41% | percent labeling [10]: 50.7%

O=C(CCS)NCCNC(=O)c1cnccn1
percent labeling [1]: 5.5% | percent labeling [2]: 21.8% | percent labeling [3]: 35.5% | percent labeling [4]: 24.1% | percent labeling [5]: 27.2% | percent labeling [6]: 10.2% | percent labeling [7]: 19% | percent labeling [8]: 34.2% | percent labeling [9]: 30.7% | percent labeling [10]: 43.5%

CC(C)c1nc(CCNC(=O)CCS)n(C)n1
percent labeling [1]: 7.1% | percent labeling [2]: 20.5% | percent labeling [3]: 29.1% | percent labeling [4]: 22.1% | percent labeling [5]: 27.9% | percent labeling [6]: 9.3% | percent labeling [7]: 11.3% | percent labeling [8]: 27.4% | percent labeling [9]: 34.1% | percent labeling [10]: 42%

O=C(NCCS)c1cc2ccccc2o1
percent labeling [11]: 44.2% | percent labeling [1]: 31.7% | percent labeling [2]: 35.8% | percent labeling [3]: 26.4% | percent labeling [4]: 26.6% | percent labeling [5]: 25.4% | percent labeling [6]: 63.6% | percent labeling [12]: 37.8% | percent labeling [7]: 26.1% | percent labeling [8]: 38.7% | percent labeling [9]: 25.1% | percent labeling [10]: 36.9%

O=C(NCCS)C1CC(O)c2cc(F)ccc2O1 (configuration not stated)
percent labeling [11]: 43.1% | percent labeling [1]: 21.3% | percent labeling [2]: 41.2% | percent labeling [3]: 26.8% | percent labeling [4]: 46% | percent labeling [5]: 33.3% | percent labeling [6]: 33.3% | percent labeling [12]: 47.1% | percent labeling [7]: 29.1% | percent labeling [8]: 37.7% | percent labeling [9]: 36.8% | percent labeling [10]: 53.8%

CCCN1CCN(c2ccc(CN(C)C(=O)CCS)nn2)CC1
percent labeling [1]: 11.9% | percent labeling [2]: 29.1% | percent labeling [3]: 45.3% | percent labeling [4]: 33.7% | percent labeling [5]: 53.2% | percent labeling [6]: 22.7% | percent labeling [7]: 36.7% | percent labeling [8]: 30.4% | percent labeling [9]: 27.1% | percent labeling [10]: 56.8%

O=C(CCS)Nc1cc(C(F)(F)F)ccc1N1CCCC1
percent labeling [1]: 13.4% | percent labeling [2]: 48.6% | percent labeling [3]: 20.7% | percent labeling [4]: 12.1% | percent labeling [5]: 16.8% | percent labeling [6]: 26.2% | percent labeling [7]: 10.3% | percent labeling [8]: 15.6% | percent labeling [9]: 11.5% | percent labeling [10]: 22.8%

Cc1c(CC(=O)NCCS)c(-c2ccccc2)nc2ccccc12
percent labeling [11]: 32.7% | percent labeling [1]: 14% | percent labeling [2]: 15.7% | percent labeling [3]: 9.5% | percent labeling [4]: 22.9% | percent labeling [5]: 14.8% | percent labeling [6]: 16.2% | percent labeling [12]: 24.7% | percent labeling [7]: 7.4% | percent labeling [8]: 9.1% | percent labeling [9]: 5.7% | percent labeling [10]: 30.6%

O=C(CCS)Nc1cccc(Br)c1
percent labeling [1]: 20.7% | percent labeling [2]: 58.2% | percent labeling [3]: 21.6% | percent labeling [4]: 17.6% | percent labeling [5]: 12.4% | percent labeling [6]: 46% | percent labeling [7]: 17% | percent labeling [8]: 21.7% | percent labeling [9]: 13.5% | percent labeling [10]: 29.8%

CCC(CC)C(C(=O)NCCS)N1CCOCC1 (configuration not stated)
percent labeling [11]: 47.4% | percent labeling [1]: 15% | percent labeling [2]: 33.4% | percent labeling [3]: 22.7% | percent labeling [4]: 32.6% | percent labeling [5]: 32.4% | percent labeling [6]: 26.8% | percent labeling [12]: 31.2% | percent labeling [7]: 31% | percent labeling [8]: 30.2% | percent labeling [9]: 31.2% | percent labeling [10]: 43.1%

CN(Cc1ccn(C(F)F)n1)C(=O)CCS
percent labeling [1]: 11.3% | percent labeling [2]: 29.2% | percent labeling [3]: 34.3% | percent labeling [4]: 33.6% | percent labeling [5]: 28.9% | percent labeling [6]: 17.2% | percent labeling [7]: 16.8% | percent labeling [8]: 30.5% | percent labeling [9]: 33.9% | percent labeling [10]: 49.4%

CN(C)c1ccc(C(=O)NCCS)cc1
percent labeling [11]: 46.8% | percent labeling [1]: 24.1% | percent labeling [2]: 45.4% | percent labeling [3]: 17.5% | percent labeling [4]: 31.2% | percent labeling [5]: 22.4% | percent labeling [6]: 26.5% | percent labeling [12]: 28.1% | percent labeling [7]: 17.2% | percent labeling [8]: 28.4% | percent labeling [9]: 11.5% | percent labeling [10]: 31.8%

CN1CCN(c2cc(CNC(=O)CCS)ccn2)CC1
percent labeling [1]: 8.6% | percent labeling [2]: 25.6% | percent labeling [3]: 46.3% | percent labeling [4]: 27.5% | percent labeling [5]: 46.6% | percent labeling [6]: 15% | percent labeling [7]: 12.1% | percent labeling [8]: 25.4% | percent labeling [9]: 23.7% | percent labeling [10]: 44.2%

Cc1nc2n(c(=O)c1CCNC(=O)CCS)CCCC2
percent labeling [1]: 11.2% | percent labeling [2]: 27.4% | percent labeling [3]: 41.4% | percent labeling [4]: 25.8% | percent labeling [5]: 39.1% | percent labeling [6]: 10.4% | percent labeling [7]: 19.3% | percent labeling [8]: 30.4% | percent labeling [9]: 29.6% | percent labeling [10]: 48.4%

CC(C)c1oc(-c2ccccc2)nc1C(=O)NCCS
percent labeling [11]: 27.7% | percent labeling [1]: 10.3% | percent labeling [2]: 13.1% | percent labeling [3]: 7.9% | percent labeling [4]: 17.3% | percent labeling [5]: 7.3% | percent labeling [6]: 31.7% | percent labeling [12]: 25.3% | percent labeling [7]: 8% | percent labeling [8]: 13.7% | percent labeling [9]: 6.9% | percent labeling [10]: 20.1%

O=C(CCS)Nc1cccc(OCCO)c1
percent labeling [1]: 17.1% | percent labeling [2]: 40.2% | percent labeling [3]: 40.1% | percent labeling [4]: 26.6% | percent labeling [5]: 32.3% | percent labeling [6]: 38.1% | percent labeling [7]: 44.5% | percent labeling [8]: 34.8% | percent labeling [9]: 36.4% | percent labeling [10]: 54.4%

O=C(Cc1cnc[nH]1)NCCS
percent labeling [11]: 23.5% | percent labeling [1]: 10.9% | percent labeling [2]: 20.2% | percent labeling [3]: 18.5% | percent labeling [4]: 28% | percent labeling [5]: 21.1% | percent labeling [6]: 16% | percent labeling [12]: 27.1% | percent labeling [7]: 19.9% | percent labeling [8]: 21% | percent labeling [9]: 20.4% | percent labeling [10]: 26%

Reference: PubChem BioAssay AID2202238 (Ras Initiative Chemistry Research Team, Frederick National …, 2025)
